From patent US11446276B2, “Extreme low dose THC as a therapeutic and prophylactic agent for Alzheimer's disease” (University of South Florida, priority 2015, dated 2022)

Tested on: Aβ in N2a/AβPPswe cells
Assay: Sandwich ELISA of Aβ in N2a/AβPPswe cells treated with THC and CB1 inhibitor rimonabant
Format: cell-based, human
Settings: 0.1-100 μM rimonabant with 25 nM THC
Experimental: The mechanism of action was elucidated for THC's effect on Aβ levels using a sandwich ELISA assay. N2a/AβPPswe cells, as discussed in Example 1, were suspended to 2×10^5/mL, 3 mL plated into each well, and grown in DMEM with 10% fetal bovine serum, 100 U/mL penicillin, 100 μg/mL streptomycin, and 400 μg/mL G418 (Invitrogen), at 37° C. in the presence of 5% CO2. N2a/AβPPswe cells were subcultured using trypsin, and pipetted numerous times to ensure cells were separated into individual cells. Cells were counted, as provided in Example 1, and proper amount of cell medium and fresh medium was added into new flasks according to the ratio of dilution. Pipetting was performed 10 times to homogenize cells, and 3 mL of cells were seeded into medium into each 6 well plate. When one pipette was used up, the cells were mixed in the flask before using them for the next pipette. Compounds were suspended in DMSO.
12 hours after cells were plated, cells were treated with 25 nM of Δ9-THC (T4764-1ML Sigma Aldrich, Merck KGaA; Darmstadt, Germany), with the known inhibitor of the CB1 receptor, rimonabant, at 0 μM, 100 μM, 10 μM, 1 μM, or 0.1 μM rimonabant. Untreated N2a/AβPPswe cells were used as a control. Treatment was then washed out, i.e. the medium was then removed from the cultures and 3 mL of media containing the treatment compounds were added. […]

Compound: Cc1c(C(=O)NN2CCCCC2)nn(-c2ccc(Cl)cc2Cl)c1-c1ccc(Cl)cc1 [rimonabant]
- Aβ as the concentration of the inhibitor was increased: dose-dependent increases in Aβ
